Laboratory results: PubChem BioAssay AID1347120 (National Center for Advancing Translational Sciences (NCATS), 2019)
The campaign covered roughly 390,000 compounds. About 930 (0.24%) were called active. The shares of active, inactive and inconclusive entries below differ from those in the screen. The call rests on the fitted dose curve; in most records, active means well fitted activation curve with a large enough effect; inconclusive means small, poorly fitted or top-dose-only effect; inactive means no such curve, though single readings can be large or run the other way. A potency beside an inconclusive call is a rough fit, not a confirmed value.

Test: qHTS for Suppressors of FUS Proteinopathy: Primary screen using FUS-linked yeast assay; further: nearly all actives have a fitted effect of over 55% in size;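 on growth rescue (activation): plate controls were DMSO vehicle for no effect and reference control for full effect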
Details: S. cerevisiae FUS-expressing, OD600, 24 h; Potency: growth rescue; growth rescue (activation): at 76.6 µM (top of the series)
How it was run: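 Steps: raffinose overnight preculture; dilution to OD 0.005 in 2% galactose minimal medium; compound addition (concentration series); 24hr at 30C, 99% humidity; absorbance read at 600 nm.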
Potency means the concentration at half of the fitted maximal effect; tags describe the fitted curve by direction and shape.

Row | SMILES | Potency | growth rescue (activation)
1 | CCOc1ccc(C(Nc2cccnc2)c2cc(Cl)c3cccnc3c2O)cc1 (stereo not drawn) | inactive | 
2 | CCC(C)n1c(=N)c(C(=O)NC2CCCCC2)cc2c(=O)n3ccccc3nc21 (stereo not drawn) | inactive | 
3 | Cc1ccc(-c2nnc(N)o2)cc1 | inactive | 
4 | COc1ccc(Cl)cc1N(CC(=O)Nc1ccccc1SC)S(C)(=O)=O | inconclusive: 50.1 µM [activator, single point] | 
5 | Cc1cccc(N2CCN(C(=O)COc3cccc4c3OC(C)(C)C4)CC2)c1C | inconclusive: 50.1 µM [activator, single point] | 
6 | Cn1cccc1/C=N/n1c(-c2ccccc2)n[nH]c1=S |  | inconclusive: 60.7% [activator]
7 | Cc1ccc(OCCNC(=O)c2cc(C3CC3)nc3c2cnn3C(C)C)cc1 | inconclusive: 25.1 µM [activator, partial curve] | 
8 | Cc1ccc(-c2cc(C(=O)N3CCN(c4ccc(O)cc4)CC3)c3ccccc3n2)cc1 | inconclusive: 17.8 µM [activator, partial curve, poor fit] | 
9 | O=C(NCCc1ccccc1)c1ccc(-c2ccc(F)cc2)o1 | inactive | 
10 | C#CCN(C[C@H]1[C@H](OC(=O)NCc2ccccc2)[C@H](OC(=O)NCc2ccccc2)C[C@H]2C(=O)N(c3ccccc3)C(=O)[C@@H]12)S(=O)(=O)c1ccc(C)cc1 | inconclusive: 31.6 µM [activator, single point] | 
11 | O=[N+]([O-])c1cccc(-c2ccc(C(=S)N3CCOCC3)o2)c1 | inactive | 
12 | CCOC(=O)Cn1nc(C)n(-c2ccc(Cl)cc2)c1=O |  | inconclusive: 45.4% [activator]
13 | Cc1cccc(NC(=O)C2CCN(S(=O)(=O)c3ccc4c(c3)CCCN4C(=O)C3CCC3)CC2)c1 | inconclusive: 25.1 µM [activator, partial curve, poor fit] | 
14 | O=C(Nc1cccc([N+](=O)[O-])c1)c1cccc(C(=O)Nc2cccc([N+](=O)[O-])c2)c1 | inactive | 
15 | CCCN1C/C(=C/c2ccc3c(c2)OCO3)C(=O)/C(=C/c2ccc3c(c2)OCO3)C1 | inactive | 
16 | COC(=O)N/N=C/c1ccc(-c2ccc(Cl)cc2Cl)o1 | inactive | 
17 | Cc1nc2ccccc2nc1OCC(=O)NCc1ccc2c(c1)OCO2 | inconclusive: 25.1 µM [activator, single point] | 
18 | COc1ccc(/C=N/NC(=O)c2ccc3ccccc3c2)cc1OS(=O)(=O)c1ccc(NC(C)=O)cc1 | inconclusive: 35.5 µM [activator, single point] | 
19 | COc1cc(Cl)c(C)cc1Nc1nc2ccccc2n2cnnc12 | inactive | 
20 | CSc1nc2cc(Oc3cccc(Cl)c3Cl)c(Cl)cc2[nH]1 | inconclusive: 22.4 µM [activator, single point] | 
21 | CCc1cccc(CC)c1NC(=S)NCCc1c(C)[nH]c2ccc(C)cc12 | inconclusive: 44.7 µM [activator, single point] | 
22 | Cc1cc(C)c2nc(N3C(=O)C(O)=C(C(=O)c4ccco4)C3c3cccc(O)c3)sc2c1 (stereo not drawn) | inconclusive: 28.2 µM [activator, single point] | 

Row | SMILES | Potency | growth rescue (activation)
23 | O=C(NCC1CC1)c1cc2c(c(-c3cccc(-c4ccccc4F)c3)n1)[C@H](CCO)N(C(=O)CC1CC1)C2 | inconclusive: 17.8 µM [activator, partial curve, poor fit] | 
24 | CCOc1ccc(N2CC(NS(=O)(=O)c3cccs3)CC2=O)cc1 (stereo not drawn) | inactive | 
25 | COc1ccc(N2CC(NC(=O)/C=C\c3ccccc3)CC2=O)cc1OC (stereo not drawn) | inactive | 
26 | CN(Cc1ccccc1)C(=O)c1ccc(NC(=O)Cc2ccc(NC(=O)C3CCCN(C(=O)C4CCCCC4)C3)cc2)cc1 (stereo not drawn) | inconclusive: 50.1 µM [activator, single point] | 
27 | O=C(NCc1cccs1)c1ccc(CSc2nc3ccncc3n2Cc2ccccc2F)cc1 | inactive | 
28 | CC1=C(C(=O)N(C(C)C)C(C)C)CC(CC(=O)NCCc2ccccn2)C(=O)N1Cc1ccc(C(C)(C)C)cc1 (stereo not drawn) | inconclusive: 7.94 µM [activator, partial curve, poor fit] | 
29 | CCC(=O)N1CCc2cc(S(=O)(=O)NC(C(=O)NCCc3cccc(C)c3)C(C)C)ccc21 (stereo not drawn) | inactive | 
30 | CC(C)C[C@H]1CN(CCCC[C@H]2CNC(=O)C(=O)N2CCc2ccc(O)cc2)C(=O)C(=O)N1CCc1ccccc1 | inactive | 
31 | Cc1cc2c(c(=O)n1CCc1ccccc1)C(c1ccco1)C(C#N)=C(N)O2 (stereo not drawn) | inactive | 
32 | CCOC(=O)c1ccccc1NC(=O)c1cnc(N2CCOCC2)c2ccccc12 | inconclusive: 50.1 µM [activator, single point] | 
33 | CNc1nc(C)c(C(=O)c2ccc(Cl)cc2)s1 | inconclusive: 56.2 µM [activator, partial curve, poor fit] | 
34 | CCc1cccc(C)c1NC(=O)c1cnn(-c2ccc(OC)cc2)c1C1CCN(C(=O)OC(C)(C)C)CC1 | active: 22.4 µM | 
35 | Cn1nnnc1Sc1ncnc2scc(-c3ccc([N+](=O)[O-])cc3)c12 | inconclusive: 28.2 µM [activator, single point] | 
36 | O=S(=O)(NCc1ccccc1)NCc1ccccc1F | inactive | 
37 | CS(=O)(=O)Nc1cccc(NC(=O)c2cccc3c(-c4ccc(F)c(F)c4)coc23)c1 | active: 20 µM | 
38 | COc1ccc(N2CCN(S(=O)(=O)c3ccc(Br)s3)CC2)cc1 | inactive | 
39 | COc1ccc(NS(=O)(=O)c2ccc(C(=O)N3CCN(c4ccc(F)cc4)CC3)cc2)cc1 | inconclusive: 22.4 µM [activator, partial curve, poor fit] | 
40 | O=C(CSc1nncs1)NCc1ccc2c(c1)OCO2 | inactive | 
41 | COC(=O)[C@]12C[C@H](CC(=O)NCc3ccc(C)o3)C(=O)N(CCc3ccc(OC)c(OC)c3)C1=C[C@H](C1CCCC1)O[C@@H]2C | inconclusive: 20 µM [activator, partial curve, poor fit] | 
42 | CCc1nn2c(=O)c(S(=O)(=O)Nc3ccc(C)c(C)c3)c(C)nc2s1 | inconclusive: 35.5 µM [activator, partial curve, poor fit] | 
43 | COc1cc(OC)cc(C(=O)Oc2ccc(/C=N/Nc3nc4ccccc4s3)cc2OC)c1 | inconclusive: 14.1 µM [activator, partial curve] | 
